Reference: paper PMC4336329 (PLoS ONE, 2015)
Out of some 310,000 compounds screened, about 14,000 (4.5%) showed an effect of 50% or more. The effect is printed as a negative number. This is one part of the list.

These molecules were tested against human ether-à-go-go-related gene (hERG) potassium channel (human, UniProt Q12809) (assay: primary screen, population patch clamp on CHO cells stably expressing hERG).
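Note: peak tail current of the secondary pulse compared with the same well before compound.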

Chain of human ether-à-go-go-related gene (hERG) potassium channel (Q12809 whole entry, looked up): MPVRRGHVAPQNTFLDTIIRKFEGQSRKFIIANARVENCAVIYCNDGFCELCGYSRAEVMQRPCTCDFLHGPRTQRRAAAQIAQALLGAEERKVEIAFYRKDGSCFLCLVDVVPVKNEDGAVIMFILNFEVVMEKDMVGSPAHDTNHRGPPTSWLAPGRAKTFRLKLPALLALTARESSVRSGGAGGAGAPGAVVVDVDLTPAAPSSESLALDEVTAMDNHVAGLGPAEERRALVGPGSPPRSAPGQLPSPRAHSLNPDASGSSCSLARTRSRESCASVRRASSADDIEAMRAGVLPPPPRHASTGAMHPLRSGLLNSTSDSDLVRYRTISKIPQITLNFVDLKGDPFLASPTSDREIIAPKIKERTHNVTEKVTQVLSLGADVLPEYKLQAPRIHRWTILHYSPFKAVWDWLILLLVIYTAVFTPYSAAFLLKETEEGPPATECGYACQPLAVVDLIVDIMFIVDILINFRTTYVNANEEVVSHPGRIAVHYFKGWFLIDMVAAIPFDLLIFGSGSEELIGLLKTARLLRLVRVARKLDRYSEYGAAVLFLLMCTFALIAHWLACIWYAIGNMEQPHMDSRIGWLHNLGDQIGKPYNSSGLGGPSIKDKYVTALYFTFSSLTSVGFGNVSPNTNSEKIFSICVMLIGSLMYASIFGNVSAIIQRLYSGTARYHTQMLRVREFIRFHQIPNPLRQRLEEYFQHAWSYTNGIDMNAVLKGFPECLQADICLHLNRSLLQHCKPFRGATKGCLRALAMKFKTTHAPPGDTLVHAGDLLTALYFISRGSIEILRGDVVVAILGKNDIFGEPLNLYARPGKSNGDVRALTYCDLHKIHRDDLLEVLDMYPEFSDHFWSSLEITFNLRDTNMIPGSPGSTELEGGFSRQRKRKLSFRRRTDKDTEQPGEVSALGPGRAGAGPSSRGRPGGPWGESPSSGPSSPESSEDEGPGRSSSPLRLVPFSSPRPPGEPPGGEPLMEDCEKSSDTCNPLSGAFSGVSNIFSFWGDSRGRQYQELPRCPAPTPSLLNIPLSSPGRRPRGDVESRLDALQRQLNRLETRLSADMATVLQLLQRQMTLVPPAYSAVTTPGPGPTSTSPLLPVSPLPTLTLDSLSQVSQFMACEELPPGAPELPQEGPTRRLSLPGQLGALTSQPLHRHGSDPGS

Compound	hERG current change (%, negative = inhibition) at 10uM [%]
CCOc1cc(CN2CCN(CCc3ccccc3)C(CCO)C2)ccc1OC (stereo not drawn)	-66.5
COc1cccc2sc(N(CCCN(C)C)C(=O)C(c3ccccc3)c3ccccc3)nc12.Cl	-72.7
N#CCSc1nnc(-c2cnccn2)n1Cc1ccccc1	17.7
CC(C)(C)c1ccc(C(=O)Nc2ccc(O)c3c(=O)cc(-c4ccccc4Cl)oc23)cc1	-3.26
COc1ccc(C2c3ccc(O)cc3Oc3ncn4nc(-c5ccccn5)nc4c32)cc1 (stereo not drawn)	17.9
COc1cc(/C=C/c2ccc3cccc(O)c3n2)cc(Cl)c1OC	26.1
COc1cccc(CNC(=O)C2CCCN(S(=O)(=O)c3ccc4c(c3)C(C)(C)C(=O)N4C)C2)c1 (stereo not drawn)	7.81
CN1CCN(C(=O)c2cccc(NS(=O)(=O)c3ccc(Br)cc3)c2)CC1.Cl	-12.6
Cn1ncc2c1ncn1nc(CCc3ccccc3)nc21	-4.42
Cc1ccc(C(=O)NCCCNC(=O)c2cccnc2)cc1	8.52
O=C(O)CCCCN1C(=O)/C(=C\c2ccc(OCc3ccccc3)c(OCc3ccccc3)c2)SC1=S	4.97
COCCNC(=O)NC1(C(F)(F)F)Oc2ccc(Cl)cc2O1 (stereo not drawn)	-8.39
C/C(=N\NC(=S)NC1CCCCC1)c1ccccc1	7.18
O=C(NCc1nnc(SCC(=O)N2CCN(c3ccccc3)CC2)o1)c1ccc(F)cc1	-5.96
CCCCNc1c(-c2ccc(SC(C)CC)cc2)nc2ccccn12.O=C(O)C(F)(F)F (stereo not drawn)	-2.61
O=C(Nc1nccs1)c1cccc(S(=O)(=O)N2CCCC2)c1	-6.01
Cc1cc(C(=O)CS(=O)(=O)c2ccccc2)cc(C)c1O	9.2
CCCCSC1(SCCCC)N=C(N)C2(C#N)C(c3ccccc3)NC(C)=C(C)C12C#N (stereo not drawn)	2.2
Cc1ccccc1-c1nc(-c2cccnc2)no1	-5.49
CC(=C1C(=O)c2ccccc2C1=O)N1CCc2ccccc2C1	-25.6
Cc1ccc(CN2CCNC(=O)C2CC(=O)N(C)CCc2ccccc2)cc1 (stereo not drawn)	-18
N#C/C(=N\Nc1cccc(C(F)(F)F)c1)C(=O)c1ccsc1	11.3
COc1ccc(CNC(=O)COC(=O)CC2CCCC2)cc1	15.5
O=C(COc1ccc2ccccc2c1)N1CCN(c2ccccc2)CC1	11.7
